# Experimental data published in the supplement of paper PMC8728848.
# This is one part of the list.
# B1: PX9937B-bvu-524-33-524 (Bacteroides vulgatus) (protein)
# chain: GTAYWKNPDQFTAFNTGLHALLREKSYNFFLLGEPRADIYGDNPIGGEASQGMERLPFNTINKENVGISNYGDMYKIINQINQMIAKTTETTILTEATQNYYLGEAYGMRAYLYFHLLRSWGDVVLYLDYTEGQNLDLSNITKGVSPATEVMEQIKKDIQASENAFGSDYSFKLGRHFWSAAATQMLKGEAYLWSGRQMNGGNSDYTIAKNAFENVKKADVGLVTSSFKDIFSFENKKNKEMIFTIHNGKDEYEMWGGYYRMRLIPAQDKMVKIYCDENGNSFVGTPDAQLNGLTQLQVRREFYFKGFRNNDTRWTTSLKAVYKKDAQGVVSYFGPITYKFQGTMLEGGSTRSFLDDFPIYRYADCLLQLAMAKVLLGEDPTEEINAVRERAYGSKYFNEHKAEIAYPNDNDPEFYTDNKWMKPDNAGALEAILKERLREFMFEGKRWYDIRLLGWDYVHQYSSAEQSRLLWPIDAGTLTNNSALKQTPGYE
# How the values were obtained:
# Test in all cases: glycan array binding signal (z-score within array); higher = stronger binding
# Conditions in all cases: glycan notation: IUPAC condensed, linker removed
# [1] = molecular target: Gal(b1-4)GlcNAc(b1-3)Gal(b1-4)GlcNAc(b1-6)[Gal(b1-3)]GalNAc
# Procedure, shortened: (§1)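 The binding signal is a Z-score computed within each array. Data were drawn from 3228 arrays in the Consortium for Functional Glycomics database, restricted to those with a known protein sequence. Scores were averaged over arrays of the same protein sequence at different concentrations or buffers, and over linkers, and negative values can be taken as non-binding.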
# [2] = molecular target: Gal(b1-4)GlcNAc(b1-3)Gal(b1-4)[Fuc(a1-3)]GlcNAc(b1-3)Gal(b1-4)[Fuc(a1-3)]GlcNAc
# Procedure, shortened: as §1
# [3] = molecular target: Gal(b1-4)GlcNAc(b1-3)GalNAc
# Procedure, shortened: as §1
# [4] = molecular target: Gal(b1-4)GlcNAc(b1-3)[Fuc(a1-3)GlcNAc(b1-6)]Gal(b1-4)Glc
# Procedure, shortened: as §1
# [5] = molecular target: Gal(b1-4)GlcNAc(b1-3)[Gal(b1-4)GlcNAc(b1-6)]Gal(b1-4)GlcNAc
# Procedure, shortened: as §1
# [6] = molecular target: Gal(b1-4)GlcNAc(b1-3)[GlcNAc(b1-6)]Gal(b1-4)GlcNAc
# Procedure, shortened: as §1
# [7] = molecular target: Gal(b1-4)GlcNAc(b1-6)Gal(b1-4)GlcNAc
# Procedure, shortened: as §1
# [8] = molecular target: Gal(b1-4)GlcNAc(b1-6)GalNAc
# Procedure, shortened: as §1
# [9] = molecular target: Gal(b1-4)GlcNAc(b1-6)[Gal(b1-3)]GalNAc
# Procedure, shortened: as §1
# [10] = molecular target: Gal(b1-4)GlcNAc(b1-6)[Gal(b1-4)GlcNAc(b1-3)]GalNAc
# Procedure, shortened: as §1
# [11] = molecular target: Gal(b1-4)GlcNAc6P
# Procedure, shortened: as §1
# [12] = molecular target: Gal(b1-6)Gal
# Procedure, shortened: as §1
# [13] = molecular target: Gal3S(b1-3)GalNAc
# Procedure, shortened: as §1
# [14] = molecular target: Gal3S(b1-3)GlcNAc
# Procedure, shortened: as §1
# [15] = molecular target: Gal3S(b1-3)[Fuc(a1-4)]GlcNAc
# Procedure, shortened: as §1
# [16] = molecular target: Gal3S(b1-4)Glc
# Procedure, shortened: as §1
# [17] = molecular target: Gal3S(b1-4)Glc6S
# Procedure, shortened: as §1
# [18] = molecular target: Gal3S(b1-4)GlcNAc
# Procedure, shortened: as §1
# [19] = molecular target: Gal3S(b1-4)[Fuc(a1-3)]Glc6S
# Procedure, shortened: as §1
# [20] = molecular target: Gal3S(b1-4)[Fuc(a1-3)]GlcNAc
# Procedure, shortened: as §1
# [21] = molecular target: Gal3S(b1-4)[Fuc(a1-3)]GlcNAc6S
# Procedure, shortened: as §1
# [22] = molecular target: Gal3S4S(b1-4)GlcNAc
# Procedure, shortened: as §1
# [23] = molecular target: Gal3S6S(b1-4)GlcNAc
# Procedure, shortened: as §1
# [24] = molecular target: Gal3S6S(b1-4)GlcNAc6S
# Procedure, shortened: as §1
# [25] = molecular target: Gal4S(b1-4)GlcNAc
# Procedure, shortened: as §1
# [26] = molecular target: Gal4S6S(b1-4)GlcNAc
# Procedure, shortened: as §1
# [27] = molecular target: Gal6P(b1-4)GlcNAc
# Procedure, shortened: as §1
# [28] = molecular target: Gal6S(b1-3)GlcNAc
# Procedure, shortened: as §1
# [29] = molecular target: Gal6S(b1-3)GlcNAc6S
# Procedure, shortened: as §1
# [30] = molecular target: Gal6S(b1-4)Glc
# Procedure, shortened: as §1
# [31] = molecular target: Gal6S(b1-4)Glc6S
# Procedure, shortened: as §1
# [32] = molecular target: Gal6S(b1-4)GlcNAc
# Procedure, shortened: as §1
# [33] = molecular target: Gal6S(b1-4)GlcNAc6S
# Procedure, shortened: as §1
# [34] = molecular target: GalNAc(a1-3)Gal
# Procedure, shortened: as §1
# [35] = molecular target: GalNAc(a1-3)GalNAc
# Procedure, shortened: as §1
# [36] = molecular target: GalNAc(a1-3)GalNAc(b1-3)Gal(a1-4)Gal(b1-4)Glc
# Procedure, shortened: as §1
# [37] = molecular target: GalNAc(a1-3)GalNAc(b1-3)Gal(a1-4)Gal(b1-4)GlcNAc
# Procedure, shortened: as §1
# [38] = molecular target: GalNAc(b1-3)Gal
# Procedure, shortened: as §1
# [39] = molecular target: GalNAc(b1-3)Gal(a1-4)Gal(b1-4)GlcNAc
# Procedure, shortened: as §1
# [40] = molecular target: GalNAc(b1-3)Gal(a1-4)Gal(b1-4)GlcNAc(b1-3)Gal(b1-4)Glc
# Procedure, shortened: as §1
# [41] = molecular target: GalNAc(b1-3)Gal(a1-6)Gal(b1-4)Glc
# Procedure, shortened: as §1
# [42] = molecular target: GalNAc(b1-3)GalNAc
# Procedure, shortened: as §1
# [43] = molecular target: GalNAc(b1-3)GlcNAc
# Procedure, shortened: as §1
# [44] = molecular target: GalNAc(b1-4)Gal(b1-4)Glc
# Procedure, shortened: as §1
# [45] = molecular target: GalNAc(b1-4)GlcNAc
# Procedure, shortened: as §1
binder,measurement,setting,value
B1,glycan array binding signal (z-score),[1],3.08
same,glycan array binding signal (z-score),[2],-0.404
same,glycan array binding signal (z-score),[3],-0.259
same,glycan array binding signal (z-score),[4],-0.272
same,glycan array binding signal (z-score),[5],-0.356
same,glycan array binding signal (z-score),[6],-0.224
same,glycan array binding signal (z-score),[7],-0.538
same,glycan array binding signal (z-score),[8],0.003
same,glycan array binding signal (z-score),[9],-0.222
same,glycan array binding signal (z-score),[10],0.133
same,glycan array binding signal (z-score),[11],0.028
same,glycan array binding signal (z-score),[12],-0.232
same,glycan array binding signal (z-score),[13],-0.399
same,glycan array binding signal (z-score),[14],-0.31
same,glycan array binding signal (z-score),[15],-0.263
same,glycan array binding signal (z-score),[16],-0.024
same,glycan array binding signal (z-score),[17],-0.203
same,glycan array binding signal (z-score),[18],-0.174
same,glycan array binding signal (z-score),[19],-0.366
same,glycan array binding signal (z-score),[20],-0.276
same,glycan array binding signal (z-score),[21],0.317
same,glycan array binding signal (z-score),[22],0.159
same,glycan array binding signal (z-score),[23],-0.32
same,glycan array binding signal (z-score),[24],0.045
same,glycan array binding signal (z-score),[25],-0.361
same,glycan array binding signal (z-score),[26],-0.381
same,glycan array binding signal (z-score),[27],-0.419
same,glycan array binding signal (z-score),[28],-0.232
same,glycan array binding signal (z-score),[29],0.218
same,glycan array binding signal (z-score),[30],-0.101
same,glycan array binding signal (z-score),[31],0.737
same,glycan array binding signal (z-score),[32],-0.153
same,glycan array binding signal (z-score),[33],-0.297
same,glycan array binding signal (z-score),[34],-0.066
same,glycan array binding signal (z-score),[35],-0.035
same,glycan array binding signal (z-score),[36],-0.294
same,glycan array binding signal (z-score),[37],-0.328
same,glycan array binding signal (z-score),[38],-0.236
same,glycan array binding signal (z-score),[39],-0.491
same,glycan array binding signal (z-score),[40],-0.329
same,glycan array binding signal (z-score),[41],-0.287
same,glycan array binding signal (z-score),[42],-0.375
same,glycan array binding signal (z-score),[43],-0.278
same,glycan array binding signal (z-score),[44],0.093
same,glycan array binding signal (z-score),[45],0.205
